Assay results published in PubChem BioAssay AID504466 (National Center for Advancing Translational Sciences (NCATS), 2011).
Hit rate of the full screen: of about 330,000 compounds, about 4,200 (1.3%) were called active. The inconclusive results got no clear call from the source; some entries with a clear call stand among them for comparison. The call rests on the fitted dose curve; in most records, active means well fitted activation curve with a large enough effect; inconclusive means small, poorly fitted or top-dose-only effect; inactive means no such curve, though single readings can be large or run the other way. A potency beside an inconclusive call is a rough fit, not a confirmed value.

Experiment: qHTS screen for small molecules that induce genotoxicity in human embryonic kidney (HEK293T) cells expressing luciferase-tagged ELG1; further: nearly all actives have a fitted effect of over 60% in size; on activity change, positive = activation: % of control where 0% means no effect
Settings: HEK293T ELG1-luciferase reporter, luminescence, 16 h; series mostly up to 46 µM; activity change, positive = activation: at the top concentration
How it was run: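 DMSO vehicle served as control against compound-treated ELG1-luciferase HEK293T cells; exposure lasted 16 hr at 37 °C and 5% CO2, followed by ONE-Glo luminescence detection after 30 min.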
Potency means the concentration at half of the fitted maximal effect; tags describe the fitted curve by direction and shape.

SMILES | Potency | activity change, positive = activation
CCOc1cccc(/C=N/NC(=O)c2cc(C3CC3)[nH]n2)c1O | inconclusive: 23.1 µM [activator, single point] | –
O=C(Nc1cccc(S(=O)(=O)N2CCCCCC2)c1)C1=COCCO1 | – | inactive: -0.0837%
O=C(c1ccco1)N1CCN(c2ccc(Cl)cc2)CC1 | inconclusive: 16.4 µM [activator, partial curve, poor fit] | –
Cc1cc(C)nc(N2CCC(C(=O)NCCc3ccccc3)CC2)n1 | inconclusive: 20.6 µM [activator, single point] | –
CC1(C)Cc2c(sc(NC(=O)c3ccco3)c2C(=O)O)CO1 | inconclusive: 7.31 µM [activator, partial curve, poor fit] | –
Cc1nn2cc(-c3ccccc3)nc2s1 | inconclusive: 2.06 µM [activator, full curve] | –
Cc1cc(C)c(CN2CCN(C(=O)Cn3cnc4c(OCc5ccccc5)ncnc43)CC2)c(C)c1 | – | inactive: 1.15%
C=CC[C@@H](CC(=O)N[C@@H](CO)Cc1ccccc1)C(=O)N[C@H](COC(=O)[C@H](CC=C)CC(=O)OC(C)(C)C)Cc1ccccc1 | – | inactive: 10.3%
CC(=O)Nc1cccc(NC(=O)c2oc3ccccc3c2C)c1 | inconclusive: 5.8 µM [activator, partial curve, poor fit] | –
CCOC(=O)C1=C(CN2CCN(C(=O)c3ccco3)CC2)NC(=O)NC1c1ccc(F)cc1 (stereo unspecified) | – | inactive: 0.518%
O=C(N/C(=C/c1ccc(Br)cc1)C(=O)N1CCCC1=O)c1ccco1 | – | inactive: -4.9%
Cc1cccc(C(=O)OCC(=O)c2c(N)n(CC(C)C)c(=O)n(C)c2=O)c1[N+](=O)[O-] | inconclusive: 13 µM [activator, partial curve] | –
CCC1CCCCN1CCCNC(=O)CCCOc1cc(=O)n(C)c2ccccc12 (stereo unspecified) | inconclusive: 18.3 µM [activator, partial curve, poor fit] | –
Fc1ccc(/C=C/c2nnc(-c3cccs3)o2)cc1 | active: 10.3 µM | –
CN(C)c1ccc(N=Nc2cccc3ccoc23)cc1 | active: 6.51 µM | –
COc1cc(-c2nc(-c3cccc(C(F)(F)F)c3)no2)cc(OC)c1OC | – | inactive: 6.24%
COC(=O)c1c(NC(=O)c2ccco2)sc(C(=O)Nc2ccc(F)cc2)c1C | inconclusive: 1.64 µM [activator, full curve, poor fit] | –
COc1ccc(Cn2c(=O)sc3ccccc3c2=O)cc1 | – | inactive: 2.59%
O=C1C2C3C=CC(C4CC34)C2C(=O)N1/N=C/c1ccc(-c2ccccc2[N+](=O)[O-])o1 (stereo unspecified) | inconclusive: 18.4 µM [activator, partial curve, poor fit] | –
CCOC(=O)c1[nH]c2ccc(OC)cc2c1NC(=O)c1ccccc1C(=O)O | inconclusive: 18.3 µM [activator, partial curve, poor fit] | –
Nc1nc(-c2cc3ccccc3o2)cs1 | inconclusive: 6.51 µM [activator, partial curve, poor fit] | –
CCOc1ccc(S(=O)(=O)N(C)c2ccc(OCC(=O)NCCc3ccc(OC)cc3)cc2)cc1 | – | inactive: -7.07%
O=C(CN1CCN(Cc2ccccc2Cl)C1=O)NC1CCCCCC1 | inconclusive: 23.1 µM [activator, partial curve, poor fit] | –

SMILES | Potency | activity change, positive = activation
COc1ccc(/C=N/NC(=O)c2ccc[nH]2)cc1 | active: 8.2 µM | –
CCOC(=O)C1=C(c2ccccc2)NC(=S)NC1c1cccc([N+](=O)[O-])c1 (stereo unspecified) | – | inactive: -1.3%
CCOc1ccc(NC(=O)CSC2=NCCN2)cc1 | – | inactive: 2.31%
Cc1cc(C)n(S(=O)(=O)c2ccc(Cl)c(Cl)c2Cl)n1 | inconclusive: 32.6 µM [activator, partial curve, poor fit] | –
O=[N+]([O-])c1cccc(-c2ccc(/C=N/Nc3nc(N4CCCCC4)nc(N4CCCCC4)n3)o2)c1 | – | inactive: -7.27%
CC1Cc2ccccc2N1C(=O)CSc1ncc(-c2ccc(F)cc2)n1C (stereo unspecified) | inconclusive: 3.26 µM [activator, full curve] | –
O=C(Nc1ccc(Cl)cc1)N1CCC(c2ccccc2)C1 (stereo unspecified) | inconclusive: 7.3 µM [activator, partial curve] | –
O=S(=O)(Nc1cccc(S(=O)(=O)N2CCCCC2)c1)c1ccc(Cl)s1 | – | inactive: -3.46%
Cc1ccc(Nc2nc3c(s2)CCC3)c(C)c1 | active: 20.6 µM | –
C/C(=N\NC(=O)Cc1ccc(Cl)cc1)c1ccccc1O | – | inactive: -0.866%
Cc1ccc(C=C2C(=O)c3ccccc3C2=O)s1 | inconclusive: 11.6 µM [activator, partial curve, poor fit] | –
CC(C)C(NC(=O)c1c(F)cccc1F)C(=O)NC1CC(C)(C)NC(C)(C)C1 (stereo unspecified) | – | inactive: 8.65%
Cc1ccc2[nH]c(SCC(=O)N3CCOCC3)nc2c1C | inconclusive: 7.08 µM [activator, partial curve, poor fit] | –
O=C(N/N=C/C(Cl)=C\c1ccccc1)c1cnccn1 | inconclusive: 11.2 µM [activator, partial curve] | –
O=C1C(c2ccnc3ccccc23)=C(O)c2ccccc21 | inconclusive: 0.291 µM [activator, partial curve] | –
COC(=O)c1c(NC(=O)COC(=O)CCNS(=O)(=O)c2ccc(NC(C)=O)cc2)sc(C)c1C | inconclusive: 18.3 µM [activator, partial curve] | –
COc1cccc(/C=N/NC(=O)c2cc3cc([N+](=O)[O-])ccc3s2)c1O | inconclusive: 9.2 µM [activator, partial curve] | –
COc1ccc(-c2csc(NC(=O)COC(=O)c3ccc(Br)o3)n2)cc1 | inconclusive: 16.4 µM [activator, single point] | –
OCCC1CN(Cc2cccc3nccnc23)CCN1Cc1ccc(F)cc1 (stereo unspecified) | – | inactive: -7.31%
CCN1CCN(C(=O)c2cc3c(s2)-c2ccccc2S(=O)(=O)C3)CC1 | – | inactive: 5.02%
Cc1nnc(SCc2cccc(CSc3nnc(C)s3)c2)s1 | inconclusive: 20.6 µM [activator, partial curve] | –
COc1cccc(C(=O)O/N=C(\N)c2ccncc2)c1OC | inconclusive: 23.1 µM [activator, partial curve, poor fit] | –
C=CCNC(=O)C1CCN(c2nc(C)cc(-c3ccccc3)n2)CC1 | inconclusive: 8.2 µM [activator, partial curve, poor fit] | –
